The name of at least one read-out is uncertain. Starred links: 1 amine or outer side, 2 acyl side, 3 side chain; linkers in the order of their positions; H or OH if unused. Positions of bridges follow the written chain, without caps; N, C: chain ends. Residues, ends and D or L forms follow the SMILES beside them. *: point of attachment. C20 diacid = O=C(O)CCCCCCCCCCCCCCCCCCC(=O)*; γGlu = O=C(O)[C@H](CCC(=O)[*:2])N[*:1]
Assay: Assay (III) ThT fibrillation assay for physical stability
Assay type: physicochemical
Settings: ThT fibrillation assay
How it was run: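 Freshly prepared formulations, pH-adjusted, with 1 μM ThT; four or eight replicates incubated at 37 °C under 960 rpm orbital shaking. Fluorescence (ex 444/em 485 nm) read every 20 min; […]. Peptide concentration measured by RP-HPLC before and after the run.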

| Structure (SMILES) | ThT pH 4.0 recovery [%] | ThT pH 4.0 recovery (%) |
| --- | --- | --- |
| CC[C@H](C)[C@H](NC(=O)[C@@H]1CCCN1C(=O)CNC(=O)[C@H](Cc1ccccc1)NC(=O)[C@H](CC(N)=O)NC(=O)[C@H](CC(N)=O)NC(=O)[C@H](CO)NC(=O)[C@H](CO)NC(=O)[C@H](CCCNC(=N)N)NC(=O)[C@H](Cc1c[nH]cn1)NC(=O)[C@H](CC(C)C)NC(=O)[C@H](Cc1ccccc1)NC(=O)[C@H](CCC(=O)O)NC(=O)[C@H](C)NC(=O)[C@H](CC(C)C)NC(=O)[C@H](CCCNC(=N)N)NC(=O)[C@H](CCC(N)=O)NC(=O)[C@@H](NC(=O)[C@H](C)NC(=O)[C@@H]1CSSC[C@H](NC(=O)[C@H](Cc2c[nH]cn2)NC(=O)CC[C@H](NC(=O)CCCCCCCCCCCCCCCCCCC(=O)O)C(=O)O)C(=O)N[C@@H](CC(N)=O)C(=O)N[C@@H]([C@@H](C)O)C(=O)N[C@@H](C)C(=O)N[C@@H]([C@@H](C)O)C(=O)N1)[C@@H](C)O)C(=O)N[C@@H](CC(C)C)C(=O)N1CCC[C@H]1C(=O)N1CCC[C@H]1C(=O)N[C@H](C(=O)N[C@@H](CC(N)=O)C(=O)N[C@H](C(=O)NCC(=O)N[C@@H](CO)C(=O)N[C@@H](Cc1c[nH]cn1)C(=O)N[C@H](C(=O)N[C@@H](Cc1ccc(O)cc1)C(N)=O)[C@@H](C)O)C(C)C)[C@@H](C)O [Example 77, N-alpha-[(S)-4-Carboxy-4-(19-carboxynonadecanoylamino)butyryl]-[His1,Glu14,His17,Arg18,His35]-pramlintide] ({C20 diacid-γGlu}-HCNTATCATQRLAEFLHRSSNNFGPILPPTNVGSHTY-NH2; disulfide 2-7 (inferred); C-terminus assumed) | 93 | 93 |
| CC[C@H](C)[C@H](NC(=O)[C@@H]1CCCN1C(=O)CNC(=O)[C@H](Cc1ccccc1)NC(=O)[C@H](CC(N)=O)NC(=O)[C@H](CCC(N)=O)NC(=O)[C@H](CO)NC(=O)[C@H](CO)NC(=O)[C@H](Cc1c[nH]cn1)NC(=O)[C@H](CCCNC(=N)N)NC(=O)[C@H](CC(C)C)NC(=O)[C@H](Cc1ccccc1)NC(=O)[C@H](CCC(=O)O)NC(=O)[C@H](C)NC(=O)[C@H](CC(C)C)NC(=O)[C@H](CCCNC(=N)N)NC(=O)[C@H](CCC(N)=O)NC(=O)[C@@H](NC(=O)[C@H](C)NC(=O)[C@@H]1CSSC[C@H](NC(=O)[C@H](CCC(=O)O)NC(=O)[C@H](CCCNC(=N)N)NC(=O)[C@H](CCC(=O)O)NC(=O)CC[C@H](NC(=O)CCCCCCCCCCCCCCCCCCC(=O)O)C(=O)O)C(=O)N[C@@H](CC(N)=O)C(=O)N[C@@H]([C@@H](C)O)C(=O)N[C@@H](C)C(=O)N[C@@H]([C@@H](C)O)C(=O)N1)[C@@H](C)O)C(=O)N[C@@H](CC(C)C)C(=O)N1CCC[C@H]1C(=O)N1CCC[C@H]1C(=O)N[C@H](C(=O)N[C@@H](CC(N)=O)C(=O)N[C@H](C(=O)NCC(=O)N[C@@H](CO)C(=O)N[C@@H](CCC(N)=O)C(=O)N[C@H](C(=O)N1CCC[C@H]1C(N)=O)[C@@H](C)O)C(C)C)[C@@H](C)O [Example 162, N-alpha-[(S)-4-Carboxy-4-(19-carboxynonadecanoylamino)butyryl]-Glu-Arg-[Glu1,Glu14,Arg17,Gln21,Gln35,Pro37]-pramlintide] ({C20 diacid-γGlu}-ERECNTATCATQRLAEFLRHSSQNFGPILPPTNVGSQTP-NH2; disulfide 4-9) | 98 | 98 |
| CC[C@H](C)[C@H](NC(=O)[C@@H]1CCCN1C(=O)CNC(=O)[C@H](Cc1ccccc1)NC(=O)[C@H](CC(N)=O)NC(=O)[C@H](CC(N)=O)NC(=O)[C@H](CO)NC(=O)[C@H](CO)NC(=O)[C@H](Cc1c[nH]cn1)NC(=O)[C@@H](NC(=O)[C@H](CC(C)C)NC(=O)[C@H](Cc1ccccc1)NC(=O)[C@H](CC(N)=O)NC(=O)[C@H](C)NC(=O)[C@H](CC(C)C)NC(=O)[C@H](CCCNC(=N)N)NC(=O)[C@H](CCC(N)=O)NC(=O)[C@@H](NC(=O)[C@H](C)NC(=O)[C@@H]1CSSC[C@H](NC(=O)[C@H](CCCNC(=N)N)NC(=O)CC[C@H](NC(=O)CCCCCCCCCCCCCCCCCCC(=O)O)C(=O)O)C(=O)N[C@@H](CC(N)=O)C(=O)N[C@@H]([C@@H](C)O)C(=O)N[C@@H](C)C(=O)N[C@@H]([C@@H](C)O)C(=O)N1)[C@@H](C)O)C(C)C)C(=O)N[C@@H](CC(C)C)C(=O)N1CCC[C@H]1C(=O)N1CCC[C@H]1C(=O)N[C@H](C(=O)N[C@@H](CC(N)=O)C(=O)N[C@H](C(=O)NCC(=O)N[C@@H](CO)C(=O)N[C@@H](Cc1c[nH]cn1)C(=O)N[C@H](C(=O)N[C@@H](Cc1ccc(O)cc1)C(N)=O)[C@@H](C)O)C(C)C)[C@@H](C)O [Example 98] ({C20 diacid-γGlu}-RCNTATCATQRLANFLVHSSNNFGPILPPTNVGSHTY-NH2; disulfide 2-7 (inferred); C-terminus assumed) |  | 30 |
| CC[C@H](C)[C@H](NC(=O)[C@@H]1CCCN1C(=O)CNC(=O)[C@H](Cc1ccccc1)NC(=O)[C@H](CC(N)=O)NC(=O)[C@H](CC(N)=O)NC(=O)[C@H](CO)NC(=O)[C@H](CO)NC(=O)[C@H](Cc1c[nH]cn1)NC(=O)[C@H](Cc1c[nH]cn1)NC(=O)[C@H](CC(C)C)NC(=O)[C@H](Cc1ccccc1)NC(=O)[C@H](CCC(=O)O)NC(=O)[C@H](C)NC(=O)[C@H](CC(C)C)NC(=O)[C@H](CCCNC(=N)N)NC(=O)[C@H](CCC(N)=O)NC(=O)[C@@H](NC(=O)[C@H](C)NC(=O)[C@@H]1CSSC[C@H](NC(=O)[C@H](Cc2c[nH]cn2)NC(=O)[C@H](Cc2c[nH]cn2)NC(=O)[C@H](Cc2c[nH]cn2)NC(=O)CC[C@H](NC(=O)CCCCCCCCCCCCCCCCCCC(=O)O)C(=O)O)C(=O)N[C@@H](CC(N)=O)C(=O)N[C@@H]([C@@H](C)O)C(=O)N[C@@H](C)C(=O)N[C@@H]([C@@H](C)O)C(=O)N1)[C@@H](C)O)C(=O)N[C@@H](CC(C)C)C(=O)N1CCC[C@H]1C(=O)N[C@@H](Cc1c[nH]cn1)C(=O)N[C@H](C(=O)N[C@@H](CC(N)=O)C(=O)N[C@H](C(=O)NCC(=O)N[C@@H](CO)C(=O)N[C@@H](Cc1c[nH]cn1)C(=O)N[C@H](C(=O)N[C@@H](Cc1ccc(O)cc1)C(N)=O)[C@@H](C)O)C(C)C)[C@@H](C)O [Example 34, N-alpha-[(S)-4-Carboxy-4-(19-carboxynonadecanoylamino)butyryl]-His-His-[His1,Glu14,His17,His29,His35]-pramlintide] ({C20 diacid-γGlu}-HHHCNTATCATQRLAEFLHHSSNNFGPILPHTNVGSHTY-NH2; disulfide 4-9 (inferred)) |  | 94 |

Further lines, results first:

| ThT pH 4.0 recovery [%] | ThT pH 4.0 recovery (%) | Structure (SMILES) |
| --- | --- | --- |
| 100 | 100 | CC[C@H](C)[C@H](NC(=O)[C@@H]1CCCN1C(=O)CNC(=O)[C@H](Cc1ccccc1)NC(=O)[C@H](CC(N)=O)NC(=O)[C@H](CC(N)=O)NC(=O)[C@H](CO)NC(=O)[C@H](CO)NC(=O)[C@H](Cc1c[nH]cn1)NC(=O)[C@H](Cc1c[nH]cn1)NC(=O)[C@H](CC(C)C)NC(=O)[C@H](Cc1ccccc1)NC(=O)[C@H](CCC(=O)O)NC(=O)[C@H](C)NC(=O)[C@H](CC(C)C)NC(=O)[C@H](CCCNC(=N)N)NC(=O)[C@H](CCC(N)=O)NC(=O)[C@@H](NC(=O)[C@H](C)NC(=O)[C@@H]1CSSC[C@H](NC(=O)[C@H](CCCCN)NC(=O)CC[C@H](NC(=O)CCCCCCCCCCCCCCCCCCC(=O)O)C(=O)O)C(=O)N[C@@H](CC(N)=O)C(=O)N[C@@H]([C@@H](C)O)C(=O)N[C@@H](C)C(=O)N[C@@H]([C@@H](C)O)C(=O)N1)[C@@H](C)O)C(=O)N[C@@H](CC(C)C)C(=O)N1CCC[C@H]1C(=O)N1CCC[C@H]1C(=O)N[C@H](C(=O)N[C@@H](CC(N)=O)C(=O)N[C@H](C(=O)NCC(=O)N[C@@H](CO)C(=O)N[C@@H](CCCNC(=N)N)C(=O)N[C@H](C(=O)N[C@@H](Cc1ccc(O)cc1)C(N)=O)[C@@H](C)O)C(C)C)[C@@H](C)O [Example 112, N-alpha-[(S)-4-Carboxy-4-(19-carboxynonadecanoylamino)butyryl]-[Glu14,His17,Arg35]-pramlintide] ({C20 diacid-γGlu}-KCNTATCATQRLAEFLHHSSNNFGPILPPTNVGSRTY-NH2; disulfide 2-7 (inferred); C-terminus assumed) |
| 23 | 23 | CC[C@H](C)[C@H](NC(=O)[C@@H]1CCCN1C(=O)CNC(=O)[C@H](Cc1ccccc1)NC(=O)[C@H](CC(N)=O)NC(=O)[C@H](CCC(N)=O)NC(=O)[C@H](CO)NC(=O)[C@H](CO)NC(=O)[C@H](Cc1c[nH]cn1)NC(=O)[C@H](Cc1c[nH]cn1)NC(=O)[C@H](CC(C)C)NC(=O)[C@H](Cc1ccccc1)NC(=O)[C@H](CCC(=O)O)NC(=O)[C@H](C)NC(=O)[C@H](CC(C)C)NC(=O)[C@H](CCCNC(=N)N)NC(=O)[C@H](CCC(N)=O)NC(=O)[C@@H](NC(=O)[C@H](C)NC(=O)[C@@H]1CSSC[C@H](NC(=O)CNC(=O)CC[C@H](NC(=O)CCCCCCCCCCCCCCCCCCC(=O)O)C(=O)O)C(=O)N[C@@H](CC(N)=O)C(=O)N[C@@H]([C@@H](C)O)C(=O)N[C@@H](C)C(=O)N[C@@H]([C@@H](C)O)C(=O)N1)[C@@H](C)O)C(=O)N[C@@H](CC(C)C)C(=O)N1CCC[C@H]1C(=O)N1CCC[C@H]1C(=O)N[C@H](C(=O)N[C@@H](CC(N)=O)C(=O)N[C@H](C(=O)NCC(=O)N[C@@H](CO)C(=O)N[C@@H](CCC(N)=O)C(=O)N[C@H](C(=O)N1CCC[C@H]1C(N)=O)[C@@H](C)O)C(C)C)[C@@H](C)O [Example 137, N-alpha-[(S)-4-Carboxy-4-(19-carboxynonadecanoylamino)butyryl]-[Gly1,Glu14,His17,Gln21,Gln35,Pro37]-pramlintide] ({C20 diacid-γGlu}-GCNTATCATQRLAEFLHHSSQNFGPILPPTNVGSQTP-NH2; disulfide 2-7) |

Reference: US8722849B2, “Polypeptides” (Novo Nordisk A/S, priority 2011, dated 2014)
